Measured values from the RNAGym collection of RNA variant scans (doi:10.1093/nar/gkz1192).
Read counts are not given, so values of variants with three or more changes are uncertain.

B1: CPEB3 Ribozyme (parent)
chain: UAACAGGGGGCCACAGCAGAAGCGUUCACGUCGCAGCCCCUGUCAGAUUCUGGUGAAUCUGCGAAUUCUGCUGUAUAUCUC

Variants of: B1
Assay: self-cleavage, relative activity (ratio to wild type); higher = more cleavage; in vitro, sequencing
Outline: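 Relative activity was defined as the cleaved/total read fraction for a variant divided by the same fraction for the unmutated ribozyme. CPEB3 self-cleaving ribozyme libraries were made by rounds of error-prone PCR, barcoded, and transcribed in vitro with T7 RNA polymerase for 5 hours at 37°C, and cleavage ran through transcription plus a 15 min DNase I step before EDTA. Illumina sequencing of template-switched reverse transcripts gave the reads, and DNA sequencing mapped the barcodes. Averages come from three batches, using variants with at least 5 reads.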
UAACAGGGGGCCACUGCAGAAGGGUUCUCGUCGCAGCCCCUGUCAGAUUCUGGUGAAUCUGCGAAUUCUGCUGUAUAUCUC gave a self-cleavage of 0.24.
Work on UAACAGGGGGCCACUGCAGAAGUGUCCACGUCGCAGCCCCUGUCAGAUUCAGGUGAAUCUGCGAAUUCUGCUGUAUAUCUC yielded a self-cleavage of 0.05.
UAACAGGGGGCCACUGCAGAAGCGUUUACGUCGCUGCCCCUGUCAGAUUCUGGUGAAUCUGCGGAUUCUGCUGUAUAUCUC gave a self-cleavage of 0.05.
UAACAGGGGGCCACUGCAGAAGCGUUUACGUAGCAGCCCCUGUCAGAUUCUGGUGAAUCUGCGAAUUCUGUUGGAUAUCUC gave a self-cleavage of 0.07.
Variant UAACAGGGGGCCACUGCAGAAGCGUUUACGUCGCAGCCCCUGACAGAUUCUGGUGAAUCUGCGAAUUCUGCUGUAUAUCUC has a self-cleavage of 0.17.
UAACAGGGGGCCACUGCAGAAGCGUUCAAGUCGCAGCCCCUGUCAGAUUCUGGUGAAUCUGCGAAUCCUGCUGUAUAUCUC gave a self-cleavage of 0.03.
With UAACAGGGGGCCACUGCAGAAGCGUUCAUGUCGCAGCCCCUGUCAGAUUCUGGUUAAUCAGCGAGUUCUGCUGUAUAUCUC the self-cleavage was 0.1.
Work on UAACAGGGGGCCACUGCAGAAGCGUUCAUGUCGCAGCCCCUGUCAGAUUCUGGAGAAUCCGCGAACUCUGCUGUAUAUCUC yielded a self-cleavage of 0.1.
UAACAGGGGGCCACUGCAGAAGCGUUCACGUUGCAGCCCCCGUCAGAUUCUGGUGAGCCUUCGAAUUCUGCUGUAUAACUC gave a self-cleavage of 0.06.
UAACAGGGGGCCACUGCAGAAGCGUUCACGUCGAAGCCCCUGUCAGAUACUGGUGGAUCUGCGAAUUCUGCUGUAUAUCUC gave a self-cleavage of 0.18.
UAACAGGGGGCCACUGCAGAAGCGUUCACGUCGGAGCCCCAGUCAGAUUCUGGUGAAUCUGCGAAUCCUGCUGUAUAUCUC gave a self-cleavage of 0.04.
Work on UAACAGGGGGCCACUGCAGAAGCGUUCACGUCGCAGACCCUGUCAGAUUCUGGUGAAUCUGCUAAUUCUGCUGUAUAUCUC yielded a self-cleavage of 0.43.
Variant UAACAGGGGGCCACUGCAGAAGCGUUCACGUCGCAGUCCCUGUCAGAUUCCGGUGAAUCUGCGAACUCUGCUGUAUAUCUC has a self-cleavage of 0.16.
With UAACAGGGGGCCACUGCAGAAGCGUUCACGUCGCAGUCCCUGUCAGAUUCUGGUGAAUCUGCGAAUUCUGCUGCAUAUCUC the self-cleavage was 0.48.
Work on UAACAGGGGGCCACUGCAGAAGCGUUCACGUCGCAGCACCUAUCAGAUUCUGGUGAAUCUGCGAAUUCUGCUGUAUAUCUC yielded a self-cleavage of 0.05.
Variant UAACAGGGGGCCACUGCAGAAGCGUUCACGUCGCAGCUCCUGUCGGAUUCUGGUGGAUCUGCGAAUUCUGCUGUAUACCUC has a self-cleavage of 0.33.
In the case of UAACAGGGGGCCACUGCAGAAGCGUUCACGUCGCAGCCGCUGUCCGAUUCUGGUGAAUCUGCGAAUUCAGCUGUAUAUCUC, the self-cleavage is reported as 0.
For UAACAGGGGGCCACUGCAGAAGCGUUCACGUCGCAGCCCUUGUCUGAUUCUGGUGAAUCUGCGAAUUCUGCUGUAUAUCUC, the self-cleavage was 0.15.
With UAACAGGGGGCCACUGCAGAAGCGUUCACGUCGCAGCCCUUGUCAGAUUCUGGUGGAUCCGCGGAUUCUGCUGUAUAUCUC the self-cleavage was 0.15.
UAACAGGGGGCCACUGCAGAAGCGUUCACGUCGCAGCCCCUGUUAGAUUCCGGUGAAUCUGCGAAUUCUGCUGUAUAUCUC showed a self-cleavage of 0.12.
Variant UAACAGGGGGCCACUGCAAAAGCAUUCACGUCGCAGCCCCUGUCCGAUUCUGGUGAAUCUGCGAAUUCUGCUGAAUAUCUC has a self-cleavage of 0.07.
In the case of UAACAGGGGGCCACUGCAAAAGCGUUCACAUCGCUGCCCCUGUCAGAUUCUGGUGGAUCUGCGAAUUCUGCUGUAUAUCUC, the self-cleavage is reported as 0.05.
Variant UAACAGGGGGCCACUGCAAAAGCGUUCACGUCGCAGCCCCUAUCUGAUUCUGGUGAAUCUGCGGAUUCUGCUGAAUAUCUC has a self-cleavage of 0.05.
UAACAGGGGGCCACUGCAUAAGCGUUCACGUCGCAGCCCCUGUCAGAUUCUGGUGAGUCUGUGAAUUCUGCUGUAUAUCUC gave a self-cleavage of 0.05.
UAACAGGGGGCCACUGCAUAAGCGUUCACGUCGCAGCCCCUGUCAGAUUCCGGUGAAUCUGCGAAUGCUGCUGUAUAUCUC showed a self-cleavage of 0.07.
In the case of UAACAGGGGGCCACUGCAUAAGCGUUCACGUCGCAGCCCCUGUCAGAUUCUGGCGAAUCUGCGAAUUCUGCUGUAUAUCUC, the self-cleavage is reported as 0.09.
For UAACAGGGGGCCACUGCAGAACCGUUGACGUCGCAGCCCCUGUCAGAUUCAGGUGAAUCUGCGAAUUCUGCUGUAUAUCUC, the self-cleavage was 0.11.
Variant UAACAGGGGGCCACUGCAGAAGCAUUCACGUCGCAGCCCCUGUCAGAUUCUGGUGGAUCUGCGAAUUCUGCUGUAUAUCUC has a self-cleavage of 0.17.
UAACAGGGGGCCACUGCAGAAGCAUUCACGUCGCAGCCUCUGUCAGAUUCUGGUGAAUCUGCGAAUUCUGCUGUAUAUCUC gave a self-cleavage of 0.19.
UAACAGGGGGCCACUGCAGAAGCGUUCACUUCGCAACCCCUGUCAGAUUCUGGUGAAUCUGCGAAUUCUGCUGUAUAUCUC showed a self-cleavage of 0.07.
Work on UAACAGGGGGCCACUGCAGAAGCGUUCACGUCACAGCCCCUGUCAGAUUCUGGUGAAUCUGCGAAUUCUGCUGUAUAUCCC yielded a self-cleavage of 0.09.
In the case of UAACAGGGGGCCACUGCAGAAGCGUUCACGUCGCAGCCCCUAUCAGAUUCUGGUGAAUCUCCGAACACUGCUGUAUACCUC, the self-cleavage is reported as 0.12.
In the case of UAACAGGGGGCCACUGCAGAAGCGUUCACGUCGCAGCCCCUGUCACAUUCUGGUGAAUCUGCGAAUUCUGCCGUAUAUCUC, the self-cleavage is reported as 0.18.
Variant UAACAGGGGGCCACUGCAGAAGCGUUCACGUCGCAGCCCCUGUCAGAUUCUAGUGAAUCUGCGAAUUCCGCUGUAUAUCUC has a self-cleavage of 0.21.
UAACAGGGGGCCACUGCAGAAGCGUUCACGUCGCAGCCCCUGUCAGAUUCUGACGAAUCUGCGAGUUCUGCUGUAUAUCUC gave a self-cleavage of 0.12.
Work on UAACAGGGGGCCACUGCAGAAGCGUUCACGUCGCAGCCCCUGUCAGAUUCUGGUAAAUCUGCGAACCCUGCUGUAUAUCUC yielded a self-cleavage of 0.12.
With UAACAGGGGGCCACUGCAGAAGCGUUCACGUCGCAGCCCCUGUCAGAUUCUGGUGAAUCUACGGAUUCUGCUGUAUAUCCC the self-cleavage was 0.12.
In the case of UAACAGGGGGCCACUGCAGAAGCGCUCGCGUCGCAGCCCCUGUUAGAUUCUGGUGAAUCUGCGAAUUCUGCUGUAUACCUC, the self-cleavage is reported as 0.08.
Work on UAACAGGGGGCCACUGCAGAAGCGCUCACGUCGCUGCCCCUGUCUGAUUCUGUUGAAUCUGCGAAUUCUGCUGUAUAUCUC yielded a self-cleavage of 0.11.
UAACAGGGGGCCACUGCAGAAGCGCUCAUGUCGCAGCCCCUGUCAGAUUCCGGUAAAUCUGCGAAUUCUGCUGUAUAUCUC gave a self-cleavage of 0.07.
UAACAGGGGGCCACUGCAGAAGCGCUCACGUCACAGCCCCUGUCAGAUUCUGGCGAAUCUGUGAAUCCUGCUGUAUAUCUC gave a self-cleavage of 0.19.
Variant UAACAGGGGGCCACUGCAGAAGCGCUCACGUCGCAGCCCCUGUCAGAUUCUGACGAAUCUGCGAAUUCUGCUGUAUACCAC has a self-cleavage of 0.25.
With UAACAGGGGGCCACUGCAGAAGCGCUCACGACGCAGCCCCUAUCAGAUUCUGGUGAAUCUGCGAAUUCUGCUGUAUAUCUC the self-cleavage was 0.19.
UAACAGGGGGCCACUGCAGAAGCGCUCACGACGCAGCCCCUGUCAGAUUCCGGAGAAUCUGCGAAUUCUGCUGUACAUCUC gave a self-cleavage of 0.08.
Variant UAACAGGGGGCCACUGCAGAAGCGCUCACGUCGCAGCCCCUGCCAGAUUCUGGUGAAUCUGCGAAUUCUGCUGUAUACCUC has a self-cleavage of 0.13.
For UAACAGGGGGCCACUGCAGAAGCGCUCACGUCGCAGCCCCUGUCAGAUUCUGGUGAAUCUGCGAACUCUGCUGUAUAUCUC, the self-cleavage was 0.06.
With UAACAGGGGGCCACUGCAGAAGCGCUCACGUCGCAGCCCCUGUCAGAUUCUGGUGAAUCUGCGAAUCCUGCUGUAUACCUC the self-cleavage was 0.07.
Variant UAACAGGGGGCCACUGCAGAAGCGGUCACGUCGCAGCCCCUGUCAGAUUCUGGUGAUUCUGCGAAUUCAGCUGUAUAUCUC has a self-cleavage of 0.11.
Variant UAACAGGGGGCCACUGCAGAAGCGUACCCGUCGCAGCCCCUGUCAGAUUCUGGUGAAUCUGCGAAUUCUGCUGUAUAUCUC has a self-cleavage of 0.13.
Variant UAACAGGGGGCCACUGCAGAAGCGUACGUGUCGCAGCCCCUGUCAGAUUCUGGUGAAUCUGCGAAUUCAGCUGUAUAUCUC has a self-cleavage of 0.05.
With UAACAGGGGGCCACUGCAGAAGCGUACACGUCGGAGCCCCUGUCAGAUUCUGGUGAACCUGCGAAUUCUGCUGUAUAUCUC the self-cleavage was 0.07.
UAACAGGGGGCCACUGCAGAAGCGUACACGUCGCAGCCCCGGUCAGGUUCUGGUGAAUCUGCGAAUUCUGCUGUAUAUCUC gave a self-cleavage of 0.2.
Work on UAACAGGGGGCCACUGCAGAAGCGUACACGUCGCAGCCCCUGUCAGAUUCUGGUGAAUCUGCGAAUUCAGCUGUAUAUCUC yielded a self-cleavage of 0.19.
Work on UAACAGGGGGCCACUGCAGAAGCGUCCGCGUCGCAGCCACCGUCAGAAUCCGGUGAAUCUGCGAAUUCUGCUGUAUAUCUC yielded a self-cleavage of 0.05.
UAACAGGGGGCCACUGCAGAAGCGUCCUCGUCGCAGCCCCUGCCAGAUUCUGGUGAACCUGCGAAUCCUGCUGUAUAUUUC gave a self-cleavage of 0.
With UAACAGGGGGCCACUGCAGAAGCGUCCACGUCGCAUCCCCUGUCAGAUUCUGGUGAAUCUGCGAAUUCUGCUGUAUAUCUC the self-cleavage was 0.35.
For UAACAGGGGGCCACUGCAGAAGCGUCCACGUCGCAGCCCCUGUCAGAUUCUGGUGAAUCUGCGAAUUCUACUGUAUAUCUC, the self-cleavage was 0.11.
Variant UAACAGGGGGCCACUGCAGAAGCGUCCACGUCGCAGCCCCCGUCAGAUUCUGGUGAAUCUGCGAAUUCUGCUGUAUAACAC has a self-cleavage of 0.65.
UAACAGGGGGCCACUGCAGAAGCGUCCACGUCGCAGCCCCUGACAGAUUCUGGUGAAUCUGCGUAUUCUGCUGUAUAACUC showed a self-cleavage of 0.07.
With UAACAGGGGGCCACUGCAGAAGCGUCCACGUCGCAGCCCCUGUCAGAUCCUGGUGAAUCCGCGAGUACUGCUGUAUAUCUC the self-cleavage was 0.14.
Variant UAACAGGGGGCCACUGCAGAAGCGUCCACGUCGCAGCCCCUGUCAGAUUCUGGUGAAUCCGCGAAUUCUGCUGUAUAUCUC has a self-cleavage of 0.15.
UAACAGGGGGCCACUGCAGAAGCGUCCACGUCGCAGCCCCUGUCAGAUUCUGGUGAAUCUGCGAACUCUGCUGUAUAUCUC gave a self-cleavage of 0.27.
For UAACAGGGGGCCACUGCAGAAGCGUGCACGUCGCAGCCCCUGUCAGAUUCUGGUGACUCUGCGAAUUCUGCUGUAUAUCUC, the self-cleavage was 0.11.
Variant UAACAGGGGGCCACUGCAGAAGCGUGCACGUCGCAGCCCCUGUCAGAUUCCGGUGGAUCUGCGAAUUCUGCAGUAUAUCUC has a self-cleavage of 0.12.
With UAACAGGGGGCCACUGCAGAAGCGUUCACGACGCAGCCCCUGUCAGAUUCUGGCGAAUCUGCGAAUUCUGCUGUAUAUCUC the self-cleavage was 0.33.
With UAACAGGGGGCCACUGCAGAAGCGUUCACGCCGCGGCCCCUGUCAGAUUCUGGUGAAUCUGCGAAUUCUGCUGUAUAUCUC the self-cleavage was 0.88.
For UAACAGGGGGCCACUGCAGAAGCGUUCACGCCGCUGCCCCUGUCAGAUUCUGGUGAAUCCGCGAAUUCUGCUGUAUAUCUC, the self-cleavage was 0.1.
Work on UAACAGGGGGCCACUGCAGAAGCGUUCACGCCGCAGCCCCUGUCAGAUUCUGGUGAAUCUGCGGAUUCUGCUGUAUAUCUC yielded a self-cleavage of 0.13.
